Assay results taken from a collection of fitness landscapes (doi:10.1016/j.celrep.2020.107928).
In all, about 81,000 sequences were measured (“one-hybrid fitness for binding NBS DNA”: median about -0.1, highest 2% from about 0.36 on). This is one part of the list.

B1: Caulobacter ParB omega fusion; a variant is named by its letters at X, in order, B8GW30 (parent)
chain: MESVVVGEPGMSEGRRGLGRGLSALLGEVDAAPAQAPGEQLGGSREAPIEILQRNPDQPRRTFREEDLEDLSNSIREKGVLQPILVRPSPDTAGEYQIVAGERAWRAAQRAGLKTVPIMVRELDDLAVLEIGIIENVQRADLNVLEEALSYKVLMEKFERTQENIAQTIGKSXSHVANXMRLLXLPDEVQSYLVSGELTAXHARAIAAAADPVALAKQIIEGGLSVRETEALARKAPNLSAGKSKGGRPPRVKDTDTQALESDLSSVLGLDVSIDHRGSTGTLTITYATLEQLDDLCNRLTRGI

Variants of: B1
Assay: one-hybrid fitness for binding NBS DNA (the Noc-binding site; scaled: cognate 1, non-cognate 0); higher = stronger binding
Settings: with NBS DNA site
Procedure, shortened: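 Fitness is the rescaled log change in variant-to-wild-type read ratio, measured by Illumina sequencing of plasmids before and after bacterial one-hybrid selection. The scale puts cognate at 1 and non-cognate at 0. Selection of Caulobacter ParB libraries, four specificity codons randomised, took place in E. coli USO with a HIS3 reporter, site 19 bp from the promoter, over 48 hours at 37°C on M9-minus-histidine with 0.1 mM IPTG and 5 mM 3-AT.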

| Variant | one-hybrid fitness for binding NBS DNA |
| --- | --- |
| AKGC | ≤ 0.2 |
| ASLK | ≤ 0.2 |
| FDAT | ≤ 0.2 |
| VSLY | ≤ 0.2 |
| TACH | ≤ 0.2 |
| EMCS | ≤ 0.2 |
| FVLA | ≤ 0.2 |
| SDQP | ≤ 0.2 |
| GQQS | ≤ 0.2 |
| RPHW | ≤ 0.2 |
| KGDC | ≤ 0.2 |
| LASQ | ≤ 0.2 |
| PWPE | ≤ 0.2 |
| HHCG | ≤ 0.2 |
| MMSV | ≤ 0.2 |
| HKQC | ≤ 0.2 |
| YMPR | ≤ 0.2 |
| NIIS | ≤ 0.2 |
| LNNS | ≤ 0.2 |
| ITRV | ≤ 0.2 |
| ADWI | ≤ 0.2 |
| NVTS | ≤ 0.2 |
| GCSI | ≤ 0.2 |
| NCRW | ≤ 0.2 |

| Variant | one-hybrid fitness for binding NBS DNA |
| --- | --- |
| LHER | ≤ 0.2 |
| NDGG | ≤ 0.2 |
| TFKE | ≤ 0.2 |
| VATA | ≤ 0.2 |
| QSVL | ≤ 0.2 |
| ESVA | ≤ 0.2 |
| PVRF | ≤ 0.2 |
| ACTM | ≤ 0.2 |
| VPAN | ≤ 0.2 |
| GKYS | ≤ 0.2 |
| PSCV | ≤ 0.2 |
| MVPV | ≤ 0.2 |
| ACNR | ≤ 0.2 |
| VIVC | ≤ 0.2 |
| VNDS | ≤ 0.2 |
| RCFC | ≤ 0.2 |
| QKAI | ≤ 0.2 |
| SGPI | ≤ 0.2 |
| YHRF | ≤ 0.2 |
| TYLI | ≤ 0.2 |
| EEAM | ≤ 0.2 |
| RVKA | 0.355 |
| AKVR | ≤ 0.2 |
| PFTW | ≤ 0.2 |

| Variant | one-hybrid fitness for binding NBS DNA |
| --- | --- |
| QTCS | 0.495 |
| KQPC | ≤ 0.2 |
| GCER | ≤ 0.2 |
| RLAW | ≤ 0.2 |
| RYED | ≤ 0.2 |
| EQTG | ≤ 0.2 |
| RGCY | ≤ 0.2 |
| QEDL | ≤ 0.2 |
| DVMS | ≤ 0.2 |
| LMTT | ≤ 0.2 |
| GSYC | ≤ 0.2 |
| VPSY | ≤ 0.2 |
| QPDP | ≤ 0.2 |
| TDPQ | ≤ 0.2 |
| HVRS | ≤ 0.2 |
| LYDG | ≤ 0.2 |
| LSRV | ≤ 0.2 |
| MSVR | ≤ 0.2 |
| HMTG | ≤ 0.2 |
| KHRH | ≤ 0.2 |
| SMRR | ≤ 0.2 |
| QMSY | ≤ 0.2 |
| ERYT | ≤ 0.2 |
| VAIL | ≤ 0.2 |

| Variant | one-hybrid fitness for binding NBS DNA |
| --- | --- |
| ILPC | ≤ 0.2 |
| TYLG | ≤ 0.2 |
| KYAM | ≤ 0.2 |
| NTVR | ≤ 0.2 |
| DWAR | ≤ 0.2 |
| MEPL | ≤ 0.2 |
| IRTK | ≤ 0.2 |
| YVNE | ≤ 0.2 |
| PSEP | ≤ 0.2 |
| LMVS | ≤ 0.2 |
| NGPN | ≤ 0.2 |
| TALD | ≤ 0.2 |
| MWHG | ≤ 0.2 |
| LSQK | ≤ 0.2 |
| MKVT | ≤ 0.2 |
| RAKV | ≤ 0.2 |
| RQEP | ≤ 0.2 |
| FWYG | ≤ 0.2 |
| QAGS | 0.342 |
| HESV | ≤ 0.2 |
| PETH | ≤ 0.2 |
| PCQL | ≤ 0.2 |
| HTAN | ≤ 0.2 |
| LRQL | ≤ 0.2 |

| Variant | one-hybrid fitness for binding NBS DNA |
| --- | --- |
| MEPN | ≤ 0.2 |
| IAAP | ≤ 0.2 |
| LLPN | ≤ 0.2 |
| LGNA | ≤ 0.2 |
| SLPA | ≤ 0.2 |
| VDYG | ≤ 0.2 |
| PVKG | ≤ 0.2 |
| MDKT | ≤ 0.2 |
| LLPR | ≤ 0.2 |
| PKYM | ≤ 0.2 |
| APCN | ≤ 0.2 |
| HGDS | ≤ 0.2 |
| PRAT | ≤ 0.2 |
| SVQL | ≤ 0.2 |
| TVPY | ≤ 0.2 |
| HDRV | ≤ 0.2 |
| DIIR | ≤ 0.2 |
| ADTG | ≤ 0.2 |
| ILNG | ≤ 0.2 |
| TYMN | ≤ 0.2 |
| QGLV | ≤ 0.2 |
| TSCV | ≤ 0.2 |
| VRDG | ≤ 0.2 |
| LQCC | ≤ 0.2 |

| Variant | one-hybrid fitness for binding NBS DNA |
| --- | --- |
| LRYT | ≤ 0.2 |
| LICS | ≤ 0.2 |
| LNLL | ≤ 0.2 |
| ASMA | ≤ 0.2 |
| RYQH | ≤ 0.2 |
| GPKD | ≤ 0.2 |
| AQTV | ≤ 0.2 |
| GSTM | ≤ 0.2 |
| KQQA | ≤ 0.2 |
| VALY | ≤ 0.2 |
| LRRC | ≤ 0.2 |
| RHVG | ≤ 0.2 |
| TCLT | ≤ 0.2 |
| SVLT | ≤ 0.2 |
| CALM | ≤ 0.2 |
| RCPS | ≤ 0.2 |
| SLPK | ≤ 0.2 |
| VDAQ | ≤ 0.2 |
| RDHA | ≤ 0.2 |
| VRRE | ≤ 0.2 |
| TGQS | ≤ 0.2 |
| VITH | ≤ 0.2 |
| TQKH | ≤ 0.2 |
| QCVF | ≤ 0.2 |

| Variant | one-hybrid fitness for binding NBS DNA |
| --- | --- |
| LSHT | ≤ 0.2 |
| PCVT | ≤ 0.2 |
| QRRN | 0.547 |
| MTLV | ≤ 0.2 |
| HIDS | ≤ 0.2 |
| KRHS | 0.464 |
| QETS | ≤ 0.2 |
| ISLT | ≤ 0.2 |
| TLTE | ≤ 0.2 |
| FNKR | ≤ 0.2 |
| TRRK | ≤ 0.2 |
| GRVG | ≤ 0.2 |
| PYHR | ≤ 0.2 |
| DMWS | ≤ 0.2 |
| EQMR | ≤ 0.2 |
| TNED | ≤ 0.2 |
| HMQP | ≤ 0.2 |
| QTKQ | 0.568 |
| VMFR | ≤ 0.2 |
| AAWS | ≤ 0.2 |
| NDTN | ≤ 0.2 |
| KKVS | ≤ 0.2 |
| DNMK | ≤ 0.2 |
| PASG | ≤ 0.2 |

| Variant | one-hybrid fitness for binding NBS DNA |
| --- | --- |
| GVAA | ≤ 0.2 |
| GPRW | ≤ 0.2 |
| RSTF | ≤ 0.2 |
| AYSM | ≤ 0.2 |
| MNAC | ≤ 0.2 |
| ERVY | ≤ 0.2 |
| GTGS | ≤ 0.2 |
| PMCP | ≤ 0.2 |
| VHPG | ≤ 0.2 |
| TQWS | ≤ 0.2 |
| ATNA | ≤ 0.2 |
| CVSY | ≤ 0.2 |
| ENSV | ≤ 0.2 |
| SRKC | ≤ 0.2 |
| PILY | ≤ 0.2 |
| CCWY | ≤ 0.2 |
| TLDL | ≤ 0.2 |
| RMGV | ≤ 0.2 |
| NHFG | ≤ 0.2 |
| PVSQ | ≤ 0.2 |
| FQFS | ≤ 0.2 |
| MNRT | ≤ 0.2 |
| AHHL | ≤ 0.2 |
| QYDR | 0.305 |

| Variant | one-hybrid fitness for binding NBS DNA |
| --- | --- |
| MAAG | ≤ 0.2 |
| IVAE | ≤ 0.2 |
| WRGE | ≤ 0.2 |
| QETV | ≤ 0.2 |
| QYQV | ≤ 0.2 |
| PQLI | ≤ 0.2 |
| MIPK | ≤ 0.2 |
| DPES | ≤ 0.2 |
| QTLK | ≤ 0.2 |
| YKTR | ≤ 0.2 |
| GLPI | ≤ 0.2 |
| KHGS | ≤ 0.2 |
| AASK | ≤ 0.2 |
| YRCW | ≤ 0.2 |
| HSSD | ≤ 0.2 |
| PPKD | ≤ 0.2 |
| DHSP | ≤ 0.2 |
| SVYT | ≤ 0.2 |
| KYCR | ≤ 0.2 |
| IEHT | ≤ 0.2 |
| LLTD | ≤ 0.2 |
| LVHN | ≤ 0.2 |
| WARR | ≤ 0.2 |
| VRPD | ≤ 0.2 |

| Variant | one-hybrid fitness for binding NBS DNA |
| --- | --- |
| SRRQ | ≤ 0.2 |
| CRFV | ≤ 0.2 |
| RVHW | ≤ 0.2 |
| NSFG | ≤ 0.2 |
| RQYN | ≤ 0.2 |
| CVQS | ≤ 0.2 |
| QMVR | 0.424 |
| LQHE | ≤ 0.2 |
| KFCC | ≤ 0.2 |
| HAMC | ≤ 0.2 |
| QDVH | ≤ 0.2 |
| VAIG | ≤ 0.2 |
| YKYT | ≤ 0.2 |
| MEAF | ≤ 0.2 |
| TRMK | ≤ 0.2 |
| PADM | ≤ 0.2 |
| CAPE | ≤ 0.2 |
| MLNG | ≤ 0.2 |
| QQTA | 0.353 |
| WPQT | ≤ 0.2 |
| DQVW | ≤ 0.2 |
| VTPI | ≤ 0.2 |
| RHTL | ≤ 0.2 |
| KTYC | ≤ 0.2 |

| Variant | one-hybrid fitness for binding NBS DNA |
| --- | --- |
| HCLW | ≤ 0.2 |
| DCIF | ≤ 0.2 |
| PDVP | ≤ 0.2 |
| SEMR | ≤ 0.2 |
| MISG | ≤ 0.2 |
| FNRS | ≤ 0.2 |
| QKEW | ≤ 0.2 |
| RIFN | ≤ 0.2 |
| SRQS | ≤ 0.2 |
| LIPS | ≤ 0.2 |
| IRDN | ≤ 0.2 |
| PLHY | ≤ 0.2 |
| QVSP | ≤ 0.2 |
| WDGR | ≤ 0.2 |
| GGDQ | ≤ 0.2 |
| DVDY | ≤ 0.2 |
| EHIR | ≤ 0.2 |
| TKTR | ≤ 0.2 |
| PNNY | ≤ 0.2 |
| TSKH | ≤ 0.2 |
| IKTK | ≤ 0.2 |
| DSLR | ≤ 0.2 |
| HYMG | ≤ 0.2 |
| NILE | ≤ 0.2 |

| Variant | one-hybrid fitness for binding NBS DNA |
| --- | --- |
| RCKG | ≤ 0.2 |
| STNW | ≤ 0.2 |
| SRYN | ≤ 0.2 |
| YDPD | ≤ 0.2 |
| DMWG | ≤ 0.2 |
| KAIE | ≤ 0.2 |
| ANSR | ≤ 0.2 |
| RITD | ≤ 0.2 |
| YQRT | ≤ 0.2 |
| HQEM | ≤ 0.2 |
| HEPF | ≤ 0.2 |
| TCGR | ≤ 0.2 |
| AGRA | ≤ 0.2 |
| GEVW | ≤ 0.2 |
| RYTT | 0.461 |
| PWNR | ≤ 0.2 |
| AQKT | ≤ 0.2 |
| DMTG | ≤ 0.2 |
| NNHT | ≤ 0.2 |
| KPPC | ≤ 0.2 |
| LVMR | ≤ 0.2 |
| CQVE | ≤ 0.2 |
| AAMN | ≤ 0.2 |
| VMSY | ≤ 0.2 |

| Variant | one-hybrid fitness for binding NBS DNA |
| --- | --- |
| VGRW | ≤ 0.2 |
| PESE | ≤ 0.2 |
| LQKS | ≤ 0.2 |
| VPFR | ≤ 0.2 |
| QLLW | ≤ 0.2 |
| MWSR | ≤ 0.2 |
| PEDS | ≤ 0.2 |
| QPEN | ≤ 0.2 |
| RCMK | ≤ 0.2 |
| IEQT | ≤ 0.2 |
| RHNE | ≤ 0.2 |
| LGIL | ≤ 0.2 |
| RQFG | ≤ 0.2 |
| LDNS | ≤ 0.2 |
| RFDY | ≤ 0.2 |
| KGDD | ≤ 0.2 |
| GNSL | ≤ 0.2 |
| HKDW | ≤ 0.2 |
